The results in this text go back to patent US20260028383A1 (KINE BIOTECH, published 2026).

Where two headings read alike, the source gives them in different places.

Assay in all cases: cell-based or functional assay
Assay [1] has as its target T1, high-affinity IL-2R (containing the α/β/γc-subunits of the IL-2R) expressed on CTLL-2 cells (mouse, UniProt P01590 22-268; P16297 27-539; P34902 23-369).
T1 sequence (looked up) 1: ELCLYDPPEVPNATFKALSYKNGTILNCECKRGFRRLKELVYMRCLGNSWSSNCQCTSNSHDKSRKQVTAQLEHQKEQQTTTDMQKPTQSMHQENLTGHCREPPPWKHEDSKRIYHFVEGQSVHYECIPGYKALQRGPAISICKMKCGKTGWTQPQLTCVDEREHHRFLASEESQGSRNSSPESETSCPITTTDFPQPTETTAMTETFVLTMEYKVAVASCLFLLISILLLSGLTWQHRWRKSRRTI
T1 sequence (looked up) 2: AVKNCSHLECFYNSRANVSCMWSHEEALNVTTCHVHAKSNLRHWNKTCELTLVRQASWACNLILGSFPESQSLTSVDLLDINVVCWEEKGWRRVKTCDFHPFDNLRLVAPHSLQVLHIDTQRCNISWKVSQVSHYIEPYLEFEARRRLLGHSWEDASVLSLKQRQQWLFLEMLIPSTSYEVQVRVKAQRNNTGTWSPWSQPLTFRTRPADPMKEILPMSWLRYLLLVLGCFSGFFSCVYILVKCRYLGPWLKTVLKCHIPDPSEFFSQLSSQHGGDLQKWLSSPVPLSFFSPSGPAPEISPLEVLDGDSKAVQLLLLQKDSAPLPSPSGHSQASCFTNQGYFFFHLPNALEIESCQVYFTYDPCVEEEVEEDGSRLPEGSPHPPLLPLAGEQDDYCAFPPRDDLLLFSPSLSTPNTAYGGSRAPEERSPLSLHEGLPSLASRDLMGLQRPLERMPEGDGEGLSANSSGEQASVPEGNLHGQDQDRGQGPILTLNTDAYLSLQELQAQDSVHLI
T1 sequence (looked up) 3: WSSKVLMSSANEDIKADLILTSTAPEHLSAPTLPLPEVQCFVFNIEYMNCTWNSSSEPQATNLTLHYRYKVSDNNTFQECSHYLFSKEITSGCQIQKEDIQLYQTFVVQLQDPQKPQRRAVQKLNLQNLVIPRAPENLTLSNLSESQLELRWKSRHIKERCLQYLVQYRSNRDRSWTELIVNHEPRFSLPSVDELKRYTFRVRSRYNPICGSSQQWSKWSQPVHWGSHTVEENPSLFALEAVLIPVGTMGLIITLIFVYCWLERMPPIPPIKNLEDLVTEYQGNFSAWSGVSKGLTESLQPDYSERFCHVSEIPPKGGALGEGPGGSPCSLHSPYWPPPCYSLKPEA

Assay [2] concerns the target T1, high-affinity IL-2R (containing the …). This is another data set of the same source.
Assay [3] deals with T2, intermediate-affinity IL-2R (containing the β/γc-subunits of the IL-2R) expressed on HH cells (human, UniProt P14784 27-551; P31785 23-369).
T2 sequence (looked up) 1: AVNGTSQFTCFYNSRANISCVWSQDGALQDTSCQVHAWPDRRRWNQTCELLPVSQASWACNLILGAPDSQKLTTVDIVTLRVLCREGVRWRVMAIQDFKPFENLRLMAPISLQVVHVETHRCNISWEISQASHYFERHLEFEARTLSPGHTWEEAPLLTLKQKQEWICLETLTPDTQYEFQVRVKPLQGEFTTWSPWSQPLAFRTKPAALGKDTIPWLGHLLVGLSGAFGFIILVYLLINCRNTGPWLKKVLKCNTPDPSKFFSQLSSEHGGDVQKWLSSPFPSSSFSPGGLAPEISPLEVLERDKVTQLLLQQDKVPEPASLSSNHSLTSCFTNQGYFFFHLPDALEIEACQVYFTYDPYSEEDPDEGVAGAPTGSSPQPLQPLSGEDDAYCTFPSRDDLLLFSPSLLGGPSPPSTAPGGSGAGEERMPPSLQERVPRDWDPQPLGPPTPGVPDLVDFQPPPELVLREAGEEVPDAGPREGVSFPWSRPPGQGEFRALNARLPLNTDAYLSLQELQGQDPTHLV
T2 sequence (looked up) 2: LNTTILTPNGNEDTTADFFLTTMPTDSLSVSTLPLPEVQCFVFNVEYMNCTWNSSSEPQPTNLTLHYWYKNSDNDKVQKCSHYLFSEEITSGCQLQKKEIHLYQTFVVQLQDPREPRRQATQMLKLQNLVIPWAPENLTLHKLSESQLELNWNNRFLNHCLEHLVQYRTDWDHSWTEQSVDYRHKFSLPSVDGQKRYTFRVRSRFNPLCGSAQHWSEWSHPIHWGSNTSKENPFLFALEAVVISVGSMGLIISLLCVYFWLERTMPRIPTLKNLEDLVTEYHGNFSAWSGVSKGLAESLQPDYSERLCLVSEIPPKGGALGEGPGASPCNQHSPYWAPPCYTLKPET

In assay [4] the target is T2, intermediate-affinity IL-2R (containing …). The source holds these as a separate data set.
Assay [5] shares this target. The source holds these as a separate data set.
Assay [6] has the same target. This is another data set of the same source.
The target of assay [7] is T1, high-affinity IL-2R (containing the …). This is another data set of the same source.

B1: IL-2 variant IL-2_#7 (F42E, Y45G) (ligand)
chain: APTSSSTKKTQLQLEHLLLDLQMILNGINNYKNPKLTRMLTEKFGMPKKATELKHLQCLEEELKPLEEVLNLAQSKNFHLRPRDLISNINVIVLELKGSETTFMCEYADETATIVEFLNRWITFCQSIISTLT
For the molecule B1, the “EC50 of pSTAT-5 induction in CTLL-2 cells (flow cytometry)” value in assay [1] was 11.5 nM. Besides, in assay [2], the “EC50 (CTLL-2): pSTAT-5 induction in CTLL-2 cells (flow cytometry)” value was determined as 74.2 nM. In assay [3], the “EC50 (HH): pSTAT-5 induction in HH cells (flow cytometry)” value stood at 2 nM and the “EC50 (HH/CTLL-2): EC50 on HH cells (intermediate-affinity IL-2R) divided by EC50 on CTLL-2 cells (high-affinity IL-2R)” value came out at 0.027 ratio. In addition, the “EC50 of pSTAT-5 induction in HH cells (flow cytometry)” value (“EC50 of pSTAT-5 induction in HH cells” for short) in assay [4] is 1.36 nM. Moreover, the “EC50 (HH/CTLL-2): EC50 on HH cells (intermediate-affinity IL-2R) divided by EC50 on CTLL-2 cells (high-affinity IL-2R)” value in assay [5] was found to be 0.12 ratio.

B2: IL-2 variant IL-2_#25 (A50I) (ligand)
chain: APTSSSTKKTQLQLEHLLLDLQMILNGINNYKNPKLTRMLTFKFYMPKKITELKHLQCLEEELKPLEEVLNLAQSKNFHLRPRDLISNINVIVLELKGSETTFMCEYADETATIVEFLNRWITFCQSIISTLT
For B2, in assay [6], the “EC50 of pSTAT-5 induction in HH cells” value turned out to be 9.93 nM. The “EC50 of pSTAT-5 induction in CTLL-2 cells (flow cytometry)” value in assay [7] was 2.91 pM.

B3: IL-2 variant IL-2_#2 (F42W, L72K) (ligand)
chain: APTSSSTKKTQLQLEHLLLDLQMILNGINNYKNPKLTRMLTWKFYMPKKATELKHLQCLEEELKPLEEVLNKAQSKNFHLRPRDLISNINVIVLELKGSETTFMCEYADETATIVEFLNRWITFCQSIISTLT
As for B3, the “EC50 of pSTAT-5 induction in CTLL-2 cells (flow cytometry)” value in assay [1] is 0.342 nM. For the same molecule, the “EC50 of pSTAT-5 induction in HH cells” value in assay [4] was determined as 0.612 nM. In assay [5], the “EC50 (HH/CTLL-2): EC50 on HH cells (intermediate-affinity IL-2R) divided by EC50 on CTLL-2 cells (high-affinity IL-2R)” value came to 1.79 ratio.
